The results in this text go back to PubChem BioAssay AID1346428 (National Center for Advancing Translational Sciences (NCATS), 2018).

Molecules are shown by their SMILES. Out of some 48,000 compounds screened, about 1,200 (2.5%) were called active. Inconclusive results (about 2%) are left out.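 How the source made its calls: active means activation of at least 60% and not above a set upper limit (about 1 call in 100 departs from these limits); inconclusive means activation of 40% to 60%, or above that upper limit; inactive means activation under 40%.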 The list shows a part of the results.

UniProt O75388, sequence (O75388 whole entry, looked up, the tested form may be a part): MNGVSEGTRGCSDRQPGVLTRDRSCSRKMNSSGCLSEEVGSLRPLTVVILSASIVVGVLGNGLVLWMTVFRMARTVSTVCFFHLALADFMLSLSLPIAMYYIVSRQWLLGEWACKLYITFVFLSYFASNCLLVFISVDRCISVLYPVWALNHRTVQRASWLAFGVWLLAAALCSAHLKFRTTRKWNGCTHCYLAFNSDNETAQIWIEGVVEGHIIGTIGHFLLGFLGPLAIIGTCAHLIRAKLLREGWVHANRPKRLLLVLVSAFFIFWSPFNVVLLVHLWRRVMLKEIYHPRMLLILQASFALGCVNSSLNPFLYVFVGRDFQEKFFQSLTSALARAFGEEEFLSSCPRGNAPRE

This assay concerns the target Probable G-protein coupled receptor 32 (Homo sapiens) (UniProt O75388). Put plainly: qHTS for Agonists of Human Resolvin D1 Receptor DRV1. Further: 0% is about no effect. The conditions noted are these: CHO-K1 GPR32 beta-arrestin PathHunter luminescence, 90 min; at 76.9 µM; hits give high values; zero percent set by DMSO-only wells. Put shortly:
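Agonism was scored by beta-Gal fragment complementation (chemiluminescent read, 1 h detection at ambient temperature) reporting beta-arrestin binding to GPR32 in engineered CHO-K1 cells. Compound treatment lasted 90 min at 37 C, normalized to a DMSO basal control.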
A general note: qHTS replaces the single test concentration by a dilution series.
For the compound `CNC(=O)c1c(NC(=O)Cc2coc3ccc(OC)cc23)sc2c1CCCC2`, the activation is inactive: -13.4%. With `Cc1cc(C)c(NC(=O)CSc2nc3c([nH]c4ccccc43)c(=O)n2C)c(C)c1`, the activation is inactive: -6.37%. For `COc1ccc(CCNC(=O)c2ccc(Cn3c(=O)[nH]c4cc(OC)c(OC)cc4c3=O)cc2)cc1OC` the value was inactive: -8.15%; for `O=C(/C=C/c1ccccc1)OCc1ccccc1`, inactive: 16.6%; for `O=C(CN1CCN(Cc2ccc3c(c2)OCO3)CC1)N1c2ccccc2Sc2ccccc21`, inactive: -3.19%. Take `CCc1ccccc1N(CC)C(=O)C1CCN(c2ncnc3c2nc2n3CCCCC2)CC1`: the activation was inactive: -14.3%.

With `CCOC(=O)C(=O)c1csc(NC=O)n1`, the activation was inactive: 7.87%. For `CCCCNC(=O)CN1CCN(c2ncc(NC(=O)c3ccc(Cl)cc3)cc2C(=O)O)CC1` the value was inactive: 11.1%; for `COc1cc(NC(=O)C2CCN(c3nc4ccccc4nc3C(F)(F)F)CC2)cc(OC)c1`, inactive: -2.24%. With `CCCOc1cccc(C2c3c(oc4ccc(F)cc4c3=O)C(=O)N2c2nc(C)c(C(C)=O)s2)c1` (centres undefined) the figure was inactive: -4.42%. With `CCC(C)NC(=O)c1sc2nc3n(c(=O)c2c1C)CCC3` (centres undefined) the figure was inactive: 4.6%; with `COCCc1nn2c(=O)cc(COC(=O)c3ccc(Br)cc3)nc2s1`, inactive: -8.55%; with `O=c1c2ccccc2n(Cc2cccc(Cl)c2)c(=O)n1Cc1ccccc1`, inactive: -10.4%. As to `CCN(C(=O)Cn1ncc2c(=O)oc3ccccc3c21)c1ccccc1F`, the activation was inactive: 1.06%. With `CN1CCN(C(CNC(=O)c2c(F)cccc2F)c2ccc3c(c2)OCO3)CC1` (centres undefined) the figure was inactive: 2.71%. For `Cc1cccc(N2CCN(C(=O)c3cc4ccc5cccnc5c4[nH]3)CC2C)c1` (centres undefined) the value was inactive: -1.94%; for `COc1cccc2c1cc1c(=O)n(CC(=O)N3CCC(C)CC3)nc(C)n12`, inactive: -7.2%. With `COCCCNc1nc(NCc2ccc(C)cc2)c2cnn(C)c2n1` the figure was active: 69.1%; with `CCC(=O)Nc1sc2c(c1C(=O)Nc1ccc(Br)cc1)CCCCC2`, inactive: -7.62%; with `O=c1oc2ccccc2cc1-c1nc(-c2cccs2)no1`, inactive: 16.2%. With `COc1ccccc1OCc1nc(-c2cccc(C)c2)no1`, the activation was active: 76.8%. For `COc1cc(OC)c(NC(=O)N2CC=C(c3c[nH]c4ccccc34)CC2)cc1Cl` the value was inactive: -4.97%; for `COc1cccc(C(=O)Nc2ccc(C(=O)OCc3cc(=O)n4nc(C5CC5)sc4n3)cc2)c1`, inactive: 2.87%; for `Cn1c(=O)cc(SCC(=O)N2CCN(c3ccccc3)CC2)c2ccccc21`, inactive: -1.52%. For `O=C(O)c1ccc(C2Nc3ccccc3-c3nnc(SCc4ccc(Cl)cc4)nc3O2)cc1` (centres undefined), the activation was inactive: 20.1%.

On to `CCCN1C(=O)C2(c3ccccc31)c1c(oc3ccccc3c1=O)C(=O)N2CCCOC(C)C` (centres undefined), for which the activation was inactive: 5.24%.

As for `O=C(c1ccco1)N1CCN(C(=O)c2cnn(-c3cccc(F)c3)c2C2CCNCC2)CC1`, the activation is inactive: -3.87%. With `Cc1cccc(-c2nc(SCC(=O)N(C)c3ccccc3)c3c(=O)n(C)c(=O)n(C)c3n2)c1` the figure was inactive: -4.33%. `O=C(c1cccc(Cl)c1)N1CCC(c2nc3ccccc3o2)CC1`: the activation was inactive: -8.01%. For `O=C(Cn1c(=O)n2nc(-c3cccc(F)c3)nc2c2ccccc21)N1CCN(c2ccccc2F)CC1`, the activation was inactive: 1.98%. With `COc1ccc(OC)c(NC(=O)c2c(C)oc3ncnc(N4CCOCC4)c23)c1` the figure was inactive: -20.7%; with `CC1CCN(C(=O)C(C)Sc2nc(-c3ccccc3)cc(C(F)(F)F)n2)CC1` (centres undefined), inactive: -2.03%. For `CC(Sc1nc2c([nH]c3ccccc32)c(=O)n1-c1ccccc1)c1ccccc1` (centres undefined) the value was inactive: -52.8%; for `CCCCn1c(=O)nc2n(-c3ccc(F)cc3)c3ccccc3cc-2c1=O`, inactive: -17.4%. For `CCOC(=O)C1CCN(C(=O)c2ccc3c(c2)N=C(CC)c2cc(C)ccc2S3)CC1` the value was inactive: 18.7%; for `Cc1ccc(-c2cc(C(F)(F)F)n3ncc(-c4ccc(Cl)cc4)c3n2)cc1`, inactive: -7.24%. In the case of `CCC(=O)N1CCc2cc(S(=O)(=O)CCC(=O)NCc3ccc(OC)cc3)ccc21`, the activation is inactive: -3.19%. Turning to `COc1cccc(CNC(=O)c2cc3ccc4cccnc4c3[nH]2)c1`, the activation was inactive: 12.2%.

Consider `COc1ccccc1NC(=O)C1=C(C)Nc2nc(SCc3cccc(F)c3)nn2C1c1ccc(C(=O)O)cc1` (centres undefined), for which the activation was inactive: -10.2%. For `COc1ccccc1N1CCN(C(=O)c2cc3c(=O)oc4ccccc4c3s2)CC1` the value was inactive: -2.95%. With `CCc1ccc(NC(=O)CSc2nc3c([nH]c4ccccc43)c(=O)n2-c2cccc(OC)c2)cc1` the figure was inactive: -6.9%; with `CCOC(=O)c1ccc(NC(=O)Cn2cnc3sc(C(=O)OCC)c(C)c3c2=O)cc1`, inactive: -7.56%; with `CCCCCn1c(=O)c2c(nc3n2CCN3c2ccc(Br)cc2)n(C)c1=O`, inactive: -2.49%. For `COc1cc(C)ccc1OCCSc1nc2ccc(NC(C)=O)cc2s1` the value was inactive: 41.5%. Consider `CCOc1ccc(NC(=O)CSc2nc(=O)[nH]c3c2CCC3)cc1`, for which the activation is inactive: -9.96%. Turning to `CCC(Sc1nnc2c3ccccc3n(C)c2n1)C(=O)Nc1nnc(C(C)C)s1` (centres undefined), the activation was inactive: 19.4%. With `CCC1CN(C(=O)N2CCC(C(=O)N3CCN(c4cc(C)ccc4C)CC3)CC2)c2ccccc2O1` (centres undefined) the figure was inactive: -15.7%; with `COc1ccc(-c2cc3ccc(O)c(CN4CCCC4)c3oc2=O)cc1OC`, inactive: -4.75%; with `Cc1ccc(C)c(CNC(=O)c2sc3ncnc(N(C)C4CCCCC4)c3c2C)c1`, inactive: -9.1%. Consider `COC(=O)COc1ccc(Oc2nc(NC(C)(C)C)nc(N(C)C)n2)nn1`, for which the activation was inactive: -8.71%. With `Cc1cc(F)ccc1NC(=O)CCSc1nc(-c2ccco2)cc(C(F)(F)F)n1` the figure was inactive: 0.568%; with `CCOC(=O)c1c(C)c(-c2ccccc2)n(CC(=O)Nc2cccc(C)c2C)c1C`, inactive: -7.53%; with `COc1ccc(C(=O)NCC(c2ccc3c(c2)OCO3)N2CCOCC2)cc1OC` (centres undefined), inactive: 6%. For `Cc1ccc(C(=O)NC2(C(F)(F)F)N=C(c3ccccc3)N(C3CCCCC3)C2=O)cc1` (centres undefined) the value was inactive: -24.5%.
